Measured values: publication PMC10668032
The other results are listed elsewhere or left out. At the low end of the ranking the order means little.

target: SIX1-Q177R homeodomain (UniProt Q15475); assay: universal protein binding microarray; conditions: Universal all-10-mer PBM (8x60K, AMADID 030236), 300 nM GST-tagged protein, Alexa Fluor 488 anti-GST; buffer, salt, pH and temperature not stated; high values mean tight binding; most listed sequences are background and not binding sites; double strand, one strand shown

Sequence	binding signal [E-score]
CCACCACC	0.00117
CCTGTGAG	-0.0203
CGATAGGC	-0.109
ATTTAGTG	0.0656
GTTCCAGA	-0.082
AGTATGCA	-0.0876
CACACCTG	0.389
TAGTCGCA	0.0252
CGGCCGAG	0.0913
CCCGCCGA	0.0749
GCATACTA	-0.0391
ACCCAAGG	0.0682
AAATCAGC	-0.213
CGTCGTAA	0.0683
AGGTCGCG	0.113
TAACAATA	-0.208
ACAGAGGC	-0.174
ACAATCTA	-0.205
AATTGAGG	-0.205
ATAAAGAT	-0.126
AGAACTGA	-0.199
CTCGAGGA	-0.0895
AAGAGCGG	-0.148
CAGATGCC	0.00999
ATTACCTC	-0.119

Sequence	binding signal [E-score]
CGAAGCCA	-0.184
CGAATACA	0.227
CCTTTTGA	-0.107
ACCTTATA	0.0849
AAAGCAGT	0.0273
CCACACGC	0.282
GCCATTAC	-0.0145
ACCCAATC	-0.0121
AACCATTA	0.0238
CAAAGGTC	-0.0694
GCGAACGC	0.0835
ACGAACGA	-0.0936
GCAGCCGC	-0.133
ACCTTGGC	0.0949
CTTATGAC	0.0398
TTACCAAA	-0.154
GTGATTCA	-0.0215
GGCAACTA	-0.214
AGCAGCGA	-0.0942
CTTGCATC	-0.288
CTTCTTTA	-0.168
GAAGGCTC	-0.277
CTCTCTAC	0.00378
CGTATGCA	-0.00155
CAACCTGC	0.0761

Sequence	binding signal [E-score]
AAGTCCTG	-0.208
AAATTGAC	0.0182
AAATATCT	0.00511
ATAAGAGG	0.0849
ACAGACCC	0.0367
CGCCGGCG	0.192
ATAAGCGC	-0.0952
GGGGCCAA	-0.0855
CTGTAACA	0.148
AATACGGG	0.016
ACTGGCCA	-0.145
ATGTTGTC	-0.0529
AGATACAG	-0.106
GGCGACCA	-0.196
CGCGTGGA	-0.0894
GAGGAGTA	0.132
AAGCTGGG	0.0681
ATCCATAG	0.0728
CGGCACCG	0.239
ACCTTACC	0.155
CACGATGA	0.114
ATTGCATA	-0.0667
AGACCTAA	-0.342
ACCTCTAT	-0.161
GACCCTGC	-0.0125

Sequence	binding signal [E-score]
CACGAGCG	0.107
ATCCCAGA	-0.0167
ACGCTTAG	0.136
AGCGGCTA	-0.188
TCATCAGA	-0.131
AGCCGAGC	-0.122
CGGCACCA	0.181
ACCTATAT	-0.0657
TATCGTAA	-0.00455
CAGTATAG	-0.0994
CACTCCCC	0.283
AGATCGTA	-0.131
AAAACCAT	0.00645
ACCTGAAA	0.0676
TAGTGGAA	-0.229
CTTAATAA	-0.138
ACGGAGAC	0.107
GAAGAGAA	-0.192
GCCTCGCC	0.0714
CTGGCCAC	-0.155
AGTGAGGA	-0.0771
ATCGGGGC	-0.0994
ACTAAAGG	-0.132
CCGCGCGC	-0.105
CTCAAGTA	-0.0444

Sequence	binding signal [E-score]
TACTTGAA	-0.0217
TATGCGGA	0.00752
ACTCGATG	0.0884
CGTCGGCC	-0.306
GTGTAGCA	0.425
ATAAGTAC	0.0942
ATTAATTG	-0.319
AGGGCCAT	-0.29
AGGAACCT	0.021
CACTGCCG	0.26
CAGTATAA	-0.169
GCGGACCC	0.0865
AACGGACT	-0.196
CGTTGCGC	-0.214
ATCTCCGG	-0.164
ATATGTGC	-0.163
AGGAAAGG	-0.0484
GGACTGCA	-0.279
AAAGTCTA	-0.328
AATAAGGG	-0.127
AATCTGTG	-0.0357
ATCCGGAT	0.124
CAATTAAC	0.0192
CAAGTGGA	0.147
CAGCAGAA	-0.159

Sequence	binding signal [E-score]
CGGAACGC	0.0933
GTAGCGCA	-0.141
ATTTGTAG	-0.0612
ACGGCGGG	0.0578
CACCAGTG	0.404
ATCGAGAG	-0.0311
CAATTTTA	-0.273
ACAAGTGG	-0.115
ACCGGTCT	-0.0683
ACAAGTGT	0.344
AATCACTC	-0.171
CATGTGAC	-0.126
CAAACAAA	-0.0492
GCTTTGGA	-0.158
ACATTTGC	-0.0692
AGGCTGCA	-0.185
ACGCCAGC	0.0892
AAAGTGCA	-0.176
AGCTCCCC	-0.0482
GTACAGTA	0.0011
TTCAGAAA	-0.0546
ACGCGCTC	-0.0372
ATCGGAAA	-0.134
GGCGACCC	0.0912
CACGTACA	0.355

Sequence	binding signal [E-score]
CTTAACTC	0.0522
GATGGGCA	-0.0234
CATACACC	0.462
AAGGTAAG	-0.0794
ACGGAATC	0.0758
GCCAGCGA	-0.0741
AGATGGAC	0.0131
CCCCGGCA	0.148
CGTCCGTA	-0.122
CGGGGACA	0.125
ATGAACCC	0.198
CAGCAGCG	-0.0463
GAGCTTTA	-0.224
CATCAAGG	-0.205
GGACACTA	0.358
GGCGCGTA	-0.145
ACTCAGAA	-0.188
GTGGATCA	0.161
CCCCCTAA	0.119
TCTCGTAA	-0.133
CAAGCACC	0.176
ATGCGCCG	-0.124
ATGTTTTA	-0.14
ATCCTGTG	0.105
AAAGCGAC	0.0713

Sequence	binding signal [E-score]
AATGGGTA	-0.0439
AGGATGAA	-0.158
AGTTGACC	0.0683
CATAATAG	-0.237
GGCGTCAC	0.145
CACCCTAA	0.326
AGAATCGA	-0.264
CCTAAGTA	-0.0298
ATGACGGG	-0.126
CTCATTTC	-0.218
CAACGATG	-0.0102
CTCAGCTC	-0.129
CGAATCCG	0.166
CCGTCATA	-0.134
CAGCGCGA	-0.25
CGAGGCAA	0.186
GGTGTGAA	0.427
AATCGTAG	0.0889
ACCCTACG	0.164
ACCAAAAC	-0.0378
AAGCTAAG	-0.17
CACCTTCC	0.307
CTAACACC	0.478
ATCTGAGG	0.0165
CTGACCCA	0.117

Sequence	binding signal [E-score]
AGGTCTGC	-0.284
ACTTTTTA	-0.168
GCTTCATA	-0.0561
GCTTGATA	-0.0757
CTTGAAAG	-0.111
CCATGACC	-0.00611
CTAGACTC	0.0396
AATTGAAC	-0.211
GGACTAGA	-0.279
AAAATATT	-0.0776
AGTCGTCG	-0.28
CAAACATA	-0.3
AGCTCCCG	-0.111
AGCCATAA	-0.208
ATTCTTCC	-0.302
CATGGTGC	0.123
TCGTTTCA	-0.125
CTTAGGTA	-0.0285
ATACAATG	-0.273
AATGCGGT	0.081
CGTCTCCC	-0.017
TCTTATAA	0.0214
AATAACGG	-0.188
AGAGGAAC	-0.198
CGCAGGTA	0.134

Sequence	binding signal [E-score]
CCCGGCTC	0.0122
ACCTAGCA	0.0118
GTGTGTCA	0.369
CCAGGACA	0.12
AACGCGCC	-0.091
GACTAGGC	-0.183
CTCGCTGA	-0.177
ACGAAAGT	-0.098
ACTGGCCG	-0.269
ATGTCTCC	-0.221
GCAACTGC	-0.206
AGCGGGCC	-0.35
AGTCTTCG	-0.025
CAGCAAAA	-0.148
AGCATTTA	-0.113
ATAACGAA	-0.311
AGATCTTG	-0.133
GAACTGTC	-0.122
ACTCTGCC	-0.0185
GTGTCGGA	0.454
GCATAGAA	-0.0713
GACTGAGA	-0.19
GAAATCTA	0.0624
AATGTTAT	-0.27
AACCTCCA	-0.152

Sequence	binding signal [E-score]
ATGTGAAG	-0.147
GAGGACGC	-0.0433
ACCTGTCT	0.00486
CGTGGGCA	-0.143
ACTGCTCT	-0.0781
ATCAGCTA	-0.128
ATTTGATC	-0.0537
CGAATAAG	-0.161
CCTACGCG	0.104
ACACTGGC	0.379
AAGAGTCG	0.0359
GAAAAGGA	-0.191
AAACGAGA	-0.0816
ACTGGCCC	-0.188
ACACAAGC	0.115
CCAATAGA	-0.138
CCGTAATC	-0.0494
TGAAAGAA	-0.223
ATGAAGCC	-0.111
GCCAAAAC	-0.22
TGGGCCAA	-0.0936
CCTGAGAC	-0.0593
AGCAGCAC	-0.12
AAGACCGA	-0.163
CGCGTACA	0.254

Sequence	binding signal [E-score]
GTAAAAGA	-0.0925
GCCCCTAA	-0.167
AAAAGAGT	0.0435
CACAACAA	0.168
AGTCTCCC	-0.167
CAGGACGA	0.0688
AAGACGGC	-0.121
ATCCGCAG	0.0691
GCCCATGA	-0.0591
AACGTACC	0.00034
AATCTGCC	-0.121
CTTGCTGA	-0.0939
ATGCACTC	0.0795
GGAGAGTA	0.116
AAGCTCCT	-0.0694
AGCATGTC	-0.164
CAGCAGGA	-0.154
CGAATCCA	0.0485
CAAGCGAC	0.082
CGGCATAG	-0.107
GCTTCCAC	-0.153
ACGTAAAC	0.00366
CAGAAGGC	-0.134
AACTACCA	-0.162
ATCCTAGC	-0.00448

Sequence	binding signal [E-score]
AGGCACCT	-0.0237
AGTTCTGC	-0.347
GTGGCTTA	-0.25
AGCCGCCT	-0.107
ATATACCG	0.15
AGCACTTA	-0.0453
GCCACGCC	-0.107
TCGTAACA	0.0751
CGTGCCGC	0.114
CCAGGCTA	0.000525
CACAGGCG	0.0231
ATCCGATG	-0.034
CAAACACC	0.449
AGATTCCA	-0.12
AAACGTTC	-0.338
GTCGCCAA	-0.14
AATTACCT	-0.226
CCTTTACA	0.242
CATTTTCA	-0.0252
CTCCTCCC	-0.129
CAACTTTA	-0.249
ACGGAGAG	0.0371
CACTCCGC	0.256
CTCGGTTC	-0.0697
CAGCGTCC	0.0331

Sequence	binding signal [E-score]
CCACCAGA	0.00421
GTGATAAA	-0.232
CTGCATGA	-0.16
ACGATGCG	-0.145
ATTCGTTA	-0.203
GCGGATAC	0.268
CCTTCGGA	-0.042
ATTTCGTG	0.122
ACCGTTTG	0.0107
AGCGGCGG	-0.0867
ATATCCGG	-0.0116
AACGAGCT	-0.073
CAATACAG	-0.0552
AAACCCTC	-0.00947
AGTGGAGG	-0.102
AAGTTAGT	-0.0495
CTTTTGAC	-0.00078
AGCCGACT	-0.0346
TAGTGACA	0.211
